# PubChem BioAssay AID485294 (National Center for Advancing Translational Sciences (NCATS), 2010)
# The campaign covered roughly 370,000 compounds. About 150 (0.041%) were called active. Inconclusive results, whose numbers are uncertain, are shown with a selection of clear calls. Calls follow the shape of the dose curve; as a rule, active = well fitted inhibition curve with a large enough effect; inconclusive = small, poorly fitted or top-dose-only effect; inactive = flat fitted curve, though single readings scatter. Potencies of inconclusive entries are left out as doubtful fits.
# Molecular target: Beta-lactamase (Escherichia coli (strain K12)) (UniProt P00811)
# Test: qHTS Inhibitors of AmpC Beta-Lactamase (assay with detergent); also: nearly all actives have a fitted effect of over 25% in size
# Conditions: AmpC hydrolysis of nitrocefin, absorbance 480 nm, 0.01% Triton; series mostly up to 114 µM
# Method in brief: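 AmpC (5.3 nM in the dispensed reagent) in 20 mM phosphate pH 7.0 with 0.01% (detergent screen) or 0.0001% Triton X-100 was preincubated with compounds for 15 min at room temperature. Nitrocefin was then added from an 800 uM solution, and hydrolysis was followed at 480 nm.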
# Potency is read from the fitted curve at half-maximal effect; tags tell the direction and shape of the fitted curve.
# Chain of UniProt P00811 (P00811 whole entry, looked up): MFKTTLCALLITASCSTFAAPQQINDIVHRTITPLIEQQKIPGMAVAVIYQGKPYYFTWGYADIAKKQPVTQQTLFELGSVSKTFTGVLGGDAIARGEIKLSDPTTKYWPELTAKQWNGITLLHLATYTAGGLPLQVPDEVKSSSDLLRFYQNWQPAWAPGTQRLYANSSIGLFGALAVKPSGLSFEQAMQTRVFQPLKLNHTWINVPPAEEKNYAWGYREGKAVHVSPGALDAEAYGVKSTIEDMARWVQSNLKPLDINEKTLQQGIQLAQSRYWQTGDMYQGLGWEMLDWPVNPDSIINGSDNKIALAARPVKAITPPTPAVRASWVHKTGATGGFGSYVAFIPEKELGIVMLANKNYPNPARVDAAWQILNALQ
row,Structure (SMILES),Potency
1,Fc1ccc(Nc2nc(Oc3ccccc3F)nc(N3CCCC3)n2)cc1,inactive
2,CCOc1ccccc1CNc1nc2nc3c(c(=O)n2[nH]1)CCC3,"inconclusive [inhibitor, full curve, poor fit]"
3,Cc1ccc(CNC(=O)c2ccc(C#CC(C)(C)O)s2)cc1,"inconclusive [inhibitor, single point]"
4,Cc1cccn2cc(-c3cccc(NC(=O)C(C)C)c3)nc12,inactive
5,CCOC(=O)C1=C(CS(=O)(=O)c2ccc(F)c(C)c2)NC(=O)NC1c1ccc(O)c(O)c1 (stereo unspecified),"inconclusive [inhibitor, full curve]"
6,CC(=O)c1c(C)[nH]c(C(=O)C(C)Sc2nnc(NC3CC3)s2)c1C (stereo unspecified),inactive
7,CCCSc1oc(-c2ccco2)nc1S(=O)(=O)c1ccccc1,inactive
8,CC1CCC/C(=C\Nc2ccc3c(c2)OCO3)C1=O (stereo unspecified),inactive
9,CCOc1nc(Nc2ccccc2)nc(OCC)n1,"inconclusive [inhibitor, full curve, poor fit]"
10,COc1ccccc1N1CCN(C(=O)c2sc3nc(-c4ccc(F)cc4)cn3c2C)CC1,"inconclusive [inhibitor, partial curve]"
11,CCOCCn1c(CN2CCC(C)CC2)nc2c1c(=O)n(C)c(=O)n2C,"inconclusive [inhibitor, partial curve]"
12,C(#Cc1ccccc1)Cn1nnc2ccccc21,"inconclusive [inhibitor, full curve, poor fit]"
13,COc1ccc(NC(=O)CNC(=O)c2nn(-c3ccc(OC)cc3OC)c(=O)c3ccccc23)c(OC)c1,"inconclusive [inhibitor, full curve, poor fit]"
14,O=c1c2ccccc2nc(SCc2cccc(F)c2)n1-c1cccc(S(=O)(=O)N2CCCC2)c1,"inconclusive [inhibitor, full curve, poor fit]"
15,Cc1ccc(CNS(=O)(=O)c2c(N)n(C)c(=O)n(C)c2=O)cc1,inactive
16,CCCOc1cccc(C(=O)N(Cc2sccc2C)C2CCS(=O)(=O)C2)c1 (stereo unspecified),inactive
17,CCN(CC)S(=O)(=O)c1ccc(N/N=C(\C)c2ccncc2)nc1,inactive
18,O=c1[nH]ncc2c3ccccc3n(Cc3cccc(Cl)c3)c12,"inconclusive [inhibitor, single point]"
19,CC(c1ccco1)N(C(=O)COc1ccc(Cl)cc1Cl)c1ccccn1 (stereo unspecified),inactive
20,CCN=C1S/C(=C\c2cc(Br)c(O)c(OC)c2)C(=O)N1CC,"inconclusive [inhibitor, partial curve, poor fit]"
21,CCC(=O)Nc1ccc2nc(SCCOc3ccc(C)cc3OC)sc2c1,inactive
22,CN(C)S(=O)(=O)c1cccc(NC(=O)CSc2nc3ccccc3[nH]2)c1,"inconclusive [inhibitor, full curve, poor fit]"
23,Cc1ccc(S(=O)(=O)N2CCN(C3CC(=O)N(CCc4ccccc4)C3=O)CC2)cc1C (stereo unspecified),"inconclusive [inhibitor, partial curve]"
24,CC1CCN(C(=O)CSc2nc3ccccc3[nH]2)CC1,inactive

row,Structure (SMILES),Potency
1,COc1cc(C2C(C#N)=C(SC)NC3=C2C(=O)CCC3)ccc1O (stereo unspecified),inactive
2,CN(CC(=O)Nc1c(Cl)cccc1Cl)C(=O)CNC(=O)c1ccc2ccccc2c1,"inconclusive [inhibitor, partial curve, poor fit]"
3,c1ccc2c(c1)Cc1ccccc1O2,"inconclusive [inhibitor, full curve, poor fit]"
4,COc1cc(C(=O)N2CCN(c3ccc(C)cc3C)CC2)cc(OC)c1OC,"inconclusive [inhibitor, full curve, poor fit]"
5,Nn1c(Cc2ccccc2)nc2cc(Cl)ccc2c1=O,"inconclusive [inhibitor, full curve]"
6,O=C(/C=C/c1c(F)cccc1Cl)N1CCOCC1,inactive
7,N#Cc1ccccc1OCC(=O)OCC(=O)c1c[nH]c2ccccc12,"inconclusive [inhibitor, full curve, poor fit]"
8,Cc1ccc2c(CC(=O)OCn3nnc4ccccc4c3=O)coc2c1,"inconclusive [inhibitor, full curve, poor fit]"
9,CCc1nc2ccccc2nc1N1CCN(S(=O)(=O)c2ccc(Cl)cc2)CC1,inactive
10,Cc1ccc(Cl)c(OCC(=O)OC(C)C(=O)NC2CC2)c1 (stereo unspecified),"inconclusive [inhibitor, full curve, poor fit]"
11,Cc1ccccc1OCC(=O)N1CCC2(CC1)CC(=O)c1ccccc1O2,"inconclusive [inhibitor, single point]"
12,CC(=O)c1ccc(NC(=O)c2sc3nc(C)c(C)c(C)c3c2N)cc1,inactive
13,O=C(c1ccc2c(c1)OCO2)c1cn(Cc2ccc(Cl)cc2)c2ccc(F)cc2c1=O,inactive
14,CCOC(=O)N1CCC(N2Cc3cccc(C(=O)NCC4CCN(CC(C)C)C4)c3C2=O)CC1 (stereo unspecified),"inconclusive [inhibitor, full curve]"
15,COc1cccc2c(C)cc3nnc(SCC(=O)Nc4ccc(C)cc4)n3c12,inactive
16,C=CCN(C1CCCCC1)S(=O)(=O)c1ccc2c(c1)oc(=O)n2C,"inconclusive [inhibitor, partial curve, poor fit]"
17,CCNC(=O)C(=O)NCC1CCCN1S(=O)(=O)c1cccs1 (stereo unspecified),"inconclusive [inhibitor, full curve]"
18,O=C1NC(=O)N(Cc2ccccc2)C(=O)/C1=C/N1CCCc2ccccc21,inactive
19,CC(C)(C)c1n[nH]c(=S)n(/N=C/c2cccs2)c1=O,inactive
20,CCc1cccc(C)c1NC(=O)CSc1nc(C)c(C)o1,"inconclusive [inhibitor, partial curve]"
21,COc1ccc(-c2nc(CCl)cs2)cc1,"inconclusive [inhibitor, full curve]"
22,CCOc1ccc(-c2nc(S(=O)(=O)c3ccccc3)c(NCc3cccnc3)o2)cc1,inactive
23,O=C(CSc1nc2ccccc2o1)NC1CCCC1,"inconclusive [inhibitor, partial curve, poor fit]"
24,Cn1c(=O)c2c(nc(Br)n2Cc2ccc3ccccc3c2)n(C)c1=O,"inconclusive [inhibitor, full curve, poor fit]"

row,Structure (SMILES),Potency
1,CCC(C)n1c(=O)c2sccc2n2c(CCCC(=O)NCc3ccccc3Cl)nnc12 (stereo unspecified),inactive
2,COCCNC(=O)c1sc2ncccc2c1-n1c(C)ccc1C,inactive
3,COc1ccc(NC(=O)C23CC4CC(C2)CC(c2ccccc2)(C4)C3)c(OC)c1,"inconclusive [inhibitor, single point]"
4,COC(=O)C1=C(c2cccc(OCc3ccccc3)c2)C[C@@H]2CC[C@H]1N2C(=O)NCCN1CCOCC1,inactive
5,Cc1ccc(Cl)cc1NC(=O)COC(=O)c1ccc(CN2CCCC2=O)cc1,"inconclusive [inhibitor, partial curve, poor fit]"
6,COc1cc(OC)cc(-c2cc(N)n(S(=O)(=O)Cc3ccccc3)n2)c1,"inconclusive [inhibitor, partial curve, poor fit]"
7,COc1ccc(OCC(O)CN2CCCCCC2)cc1 (stereo unspecified),"inconclusive [inhibitor, full curve, poor fit]"
8,CC(C)CCNC(=O)[C@H](CC(C)C)NC(=O)[C@H]1O[C@@H]1C(=O)O,"inconclusive [inhibitor, full curve, poor fit]"
9,Cc1nc2c(-c3ccccc3)c(C)nn2c(C)c1CCC(=O)NC(C)CCc1ccco1 (stereo unspecified),"inconclusive [inhibitor, full curve, poor fit]"
10,CCCCNC(=O)C(CC)Sc1nc2ccccc2c(=O)n1Cc1ccco1 (stereo unspecified),inactive
11,COc1ccc(C)cc1S(=O)(=O)N1CCN(C/C=C/c2ccccc2)CC1,"inconclusive [inhibitor, full curve, poor fit]"
12,Clc1nccnc1-c1ccccc1,"inconclusive [inhibitor, full curve, poor fit]"
13,CN(CC(=O)Nc1ccc(F)cc1)C(=O)C1CCN(S(=O)(=O)c2ccc3c(c2)OCCO3)CC1,"inconclusive [inhibitor, full curve, poor fit]"
14,CCOCCCNC(=O)N[C@@H](C)C(=O)OC,"inconclusive [inhibitor, partial curve, poor fit]"
15,CCc1nc(NCCN2CCOCC2)c(C#N)c2c1CCCC2,"inconclusive [inhibitor, full curve, poor fit]"
16,CC12CCC(C/C1=N/O)C2(C)C (stereo unspecified),"inconclusive [inhibitor, full curve, poor fit]"
17,CCC(C)NC(=O)CSc1nnc(-c2cc(-c3cccs3)nc3ccccc23)o1 (stereo unspecified),inactive
18,COc1ccccc1NC(=O)C1=C(C)Nc2nc(SCc3ccccc3)nn2C1c1cccc(O)c1 (stereo unspecified),inactive
19,CCn1nnnc1SCC(=O)Nc1nc(-c2cccs2)cs1,"inconclusive [inhibitor, single point]"
20,CSc1nc2ccc3nc(NC(=O)c4ccccc4)sc3c2s1,"inconclusive [inhibitor, partial curve]"
21,Cc1oc(-c2ccccc2F)nc1CS(=O)CC(=O)NC1CCCC1 (stereo unspecified),inactive
22,CCn1c(SCC(=O)c2c(N)n(C3CC3)c(=O)[nH]c2=O)nc2cc(S(N)(=O)=O)ccc21,"inconclusive [inhibitor, full curve, poor fit]"
23,O=C(Oc1ccc2ccccc2c1Cl)N1CCCC1,"inconclusive [inhibitor, full curve, poor fit]"
